In PubChem BioAssay AID624417 (National Center for Advancing Translational Sciences (NCATS), 2012):
About 6,400 (1.6%) of roughly 410,000 compounds were called active. Inconclusive means that the source gave no clear call. Such entries were picked first, then a sample of the others. Calls come from the whole dose curve; as a rule, active = well fitted inhibition curve with a large enough effect; inconclusive = small, poorly fitted or top-dose-only effect; inactive = no such curve, though single readings can be large or run the other way. No potency is given beside an inconclusive call; the fits are too rough.
Note: nearly all actives have a fitted effect of over 55% in size.
Potency is the fitted concentration of half-maximal effect; tags give direction and shape of the fitted curve.

The molecules below were run against Glucagon-like peptide 1 receptor (Homo sapiens) (UniProt P43220) (assay: qHTS of GLP-1 Receptor Inverse Agonists (Inhibition Mode)). Conditions: HEK293 GLP-1R CRE-luciferase, luminescence, 24 h, GLP-1R form is constitutively active; series mostly up to 38.3 µM.
Sequence of UniProt P43220 (P43220 whole entry, looked up): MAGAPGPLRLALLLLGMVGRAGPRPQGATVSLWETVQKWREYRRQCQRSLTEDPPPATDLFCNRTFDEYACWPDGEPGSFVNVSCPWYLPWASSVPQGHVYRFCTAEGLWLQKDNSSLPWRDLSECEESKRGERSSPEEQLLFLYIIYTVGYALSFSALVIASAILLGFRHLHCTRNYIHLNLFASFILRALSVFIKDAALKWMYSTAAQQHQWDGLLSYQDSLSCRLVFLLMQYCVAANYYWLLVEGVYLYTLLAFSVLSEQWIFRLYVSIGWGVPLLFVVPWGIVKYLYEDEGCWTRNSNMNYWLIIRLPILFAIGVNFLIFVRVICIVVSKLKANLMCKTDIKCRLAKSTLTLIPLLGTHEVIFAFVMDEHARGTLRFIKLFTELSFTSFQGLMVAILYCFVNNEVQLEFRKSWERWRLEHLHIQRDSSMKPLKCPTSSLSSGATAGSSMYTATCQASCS
Procedure, shortened: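 GLP-1R inverse agonism mode: basal reporter luminescence in engineered HEK293 cells measured after one day of compound exposure at 37 deg C, with a 12 min room-temperature detection step.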
In the case of `CC(=O)C1=CCC(c2ccccc2Cl)N(S(=O)(=O)c2ccc(C)cc2)C1` (stereo not drawn), the Potency is reported as inconclusive [inhibitor, partial curve]. With `COc1ccc(CCNC(=O)CSc2nnnn2-c2ccccc2)cc1` the Potency was inconclusive [inhibitor, partial curve]. `CN(C)CCNC(=O)c1ccc(-c2cn3c(-c4ccc(Oc5ccccc5)cc4)cnc3cn2)cc1` was tested, and the Potency was inconclusive [inhibitor, single point]. `O=C(CN1C(=O)NC(Cc2ccccc2)C1=O)Nc1ccc(OC(F)F)cc1` (stereo not drawn) was tested, and the Potency was inconclusive [inhibitor, partial curve, poor fit]. With `Cc1oc(-c2cccc(Cl)c2)nc1CSc1nc2c(c(=O)[nH]1)CCC2` the Potency was “inactive”. In the case of `CCOc1cccc(C(=O)NC(c2ccccc2)C(C)C)c1` (stereo not drawn), the Potency is reported as inconclusive [inhibitor, partial curve]. With `OC(c1ccc(F)cc1)c1ncc(-c2ccc(Oc3ccccc3)cc2)[nH]1` (stereo not drawn) the Potency was active: 10 µM. For `CCOc1ccc(C(=O)Nc2ccc3c(c2)CCCN3S(=O)(=O)c2ccc(C)cc2)cc1`, the Potency was inconclusive [inhibitor, full curve, poor fit]. For `CC1CCCCN1Cc1c(O)ccc2c(=O)c(-c3ccc(Cl)cc3)c(C(F)(F)F)oc12` (stereo not drawn), the Potency was “inactive”. In the case of `CC1=C(C(=O)OCc2ccc(C)cc2)C(c2ccccc2C(F)(F)F)CC(=O)N1` (stereo not drawn), the Potency is reported as “inactive”. For `CCN(CCNC(=O)C1CC(=O)N(CCc2ccccc2)C1)c1ccccc1` (stereo not drawn), the Potency was inconclusive [inhibitor, single point]. For `CCn1ncc(Br)c1C(=O)Nc1cc(C)cc(C)c1`, the Potency was inconclusive [inhibitor, single point]. For `CCN(CC)S(=O)(=O)c1cccc(C(=O)c2c(C)cc3ccccn23)c1`, the Potency was inconclusive [inhibitor, partial curve, poor fit]. For `Cc1cccc(OCCn2cc(/C=N/NC(=O)c3ccncc3)c3ccccc32)c1`, the Potency was inconclusive [inhibitor, full curve]. With `Cc1cc(N2CCN(C)CC2)nc2ccc(NC(=S)NCCC(C)C)cc12` the Potency was inconclusive [inhibitor, full curve, poor fit]. `COC(=O)C1=C(CS(=O)(=O)c2cc(OC)ccc2OC)NC(=O)NC1c1ccc(O)c(OC)c1` (stereo not drawn) was tested, and the Potency was “inactive”. For `O=C(CNC1CCCCCC1)Nc1ccccc1N1CCCCC1`, the Potency was inconclusive [inhibitor, single point]. With `C=CCC(CC=C)(NC(=O)c1cccc(C)c1)c1ccccc1` the Potency was inconclusive [inhibitor, single point].
